Measured values from PMC4336329 (PLoS ONE, 2015).
The campaign covered roughly 310,000 compounds. About 14,000 (4.5%) showed an effect of 50% or more. Effects have a minus sign here. This is one part of the list.

Molecular target: human ether-à-go-go-related gene (hERG) potassium channel (human, UniProt Q12809)
Assay: primary screen, population patch clamp on CHO cells stably expressing hERG
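Also: peak tail current of the secondary pulse compared with the same well before compound.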

human ether-à-go-go-related gene (hERG) potassium channel, sequence (Q12809 whole entry, looked up): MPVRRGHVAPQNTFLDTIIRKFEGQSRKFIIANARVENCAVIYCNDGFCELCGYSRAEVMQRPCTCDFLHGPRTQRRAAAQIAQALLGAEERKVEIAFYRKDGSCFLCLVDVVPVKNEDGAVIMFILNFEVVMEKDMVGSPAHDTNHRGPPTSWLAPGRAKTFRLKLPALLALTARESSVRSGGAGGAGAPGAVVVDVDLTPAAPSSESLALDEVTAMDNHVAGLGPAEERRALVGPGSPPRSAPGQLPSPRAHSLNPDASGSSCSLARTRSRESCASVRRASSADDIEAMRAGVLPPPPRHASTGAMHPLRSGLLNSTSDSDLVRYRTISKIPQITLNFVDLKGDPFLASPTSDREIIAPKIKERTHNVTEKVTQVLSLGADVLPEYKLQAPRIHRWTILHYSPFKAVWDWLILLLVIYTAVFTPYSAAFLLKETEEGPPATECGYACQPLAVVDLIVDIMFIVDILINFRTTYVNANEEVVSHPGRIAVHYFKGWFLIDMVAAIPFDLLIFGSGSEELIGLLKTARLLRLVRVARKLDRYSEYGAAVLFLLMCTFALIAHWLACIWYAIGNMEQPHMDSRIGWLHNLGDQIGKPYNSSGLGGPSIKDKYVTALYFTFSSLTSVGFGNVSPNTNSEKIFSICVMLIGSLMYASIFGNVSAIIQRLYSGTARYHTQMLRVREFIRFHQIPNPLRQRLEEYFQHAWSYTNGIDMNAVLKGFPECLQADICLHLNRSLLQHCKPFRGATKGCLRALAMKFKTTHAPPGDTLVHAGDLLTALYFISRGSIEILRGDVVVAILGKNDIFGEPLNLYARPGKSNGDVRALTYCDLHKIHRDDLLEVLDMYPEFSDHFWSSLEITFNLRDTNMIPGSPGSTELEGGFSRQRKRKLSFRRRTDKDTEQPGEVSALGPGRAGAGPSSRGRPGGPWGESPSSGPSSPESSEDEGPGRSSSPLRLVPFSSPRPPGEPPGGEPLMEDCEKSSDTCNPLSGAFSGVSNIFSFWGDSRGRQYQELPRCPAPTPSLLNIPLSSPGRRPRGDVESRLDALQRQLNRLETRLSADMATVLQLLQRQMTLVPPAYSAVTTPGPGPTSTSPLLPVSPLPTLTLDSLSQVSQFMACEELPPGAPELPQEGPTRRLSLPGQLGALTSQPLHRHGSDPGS

Structure (SMILES)	hERG current change (%, negative = inhibition) at 10uM [%]
COc1ccc(C(=O)NNC(=S)NC(=O)c2ccc(OC)cc2)cc1	27.6
O=C(N/N=C/c1ccc(OC(F)F)cc1OC(F)F)NC1CCCCC1	1.4
CCc1ccccc1NC(=S)N1CCN(c2ccccc2F)CC1	4.49
CCc1sc(C(=O)NCCc2ccc(S(N)(=O)=O)cc2)cc1C	12.8
C/C(N)=C(/C#N)C(=O)CSc1nnc(Nc2ccccc2)s1	16.6
COCCn1c(=O)[nH]c2cc(C(=O)NCc3cccnc3)ccc2c1=O	-20.9
CC1CCN(C(=O)Cn2cc3c(n2)CCCC3)CC1	-1.06
COC(=O)Cc1cccc2c(=O)c3ccccc3oc12	23.8
CC1CN(CC(O)COc2ccccc2C(C)(C)C)CC(C)O1.Cl (stereo not drawn)	-10.1
COC(=O)[C@@]1(Cc2ccc(OC)cc2)[C@H]2c3cc(C(=O)N(C)C)n(CCc4ccc(OC)c(Br)c4)c3C[C@H]2CN1C(=O)c1ccccc1	11.4
CN(C(=O)COC(=O)c1ccc(NS(=O)(=O)c2cccs2)cc1)C1CCCCC1	-13.2
COc1ccc(-c2cc(C(=O)N3CCN(C(c4ccccc4)c4ccccc4)CC3)no2)cc1OC	-8.12
CCOC(=O)c1[nH]c(C)c(C(=O)OCC(=O)N(Cc2ccccc2)C(C)C)c1C	-15.8
Cc1cc(S(=O)(=O)NCCC2=CCCCC2)ccc1Br	-12.4
COc1ccc(CCNC(=O)CSc2nnc(CNC(=O)c3cccs3)o2)cc1OC	-1.27
CC(Sc1nnc(-c2ccco2)o1)C(=O)NCCC1=CCCCC1 (stereo not drawn)	-11.8
Cc1noc(C)c1COC(=O)CCCc1nc2ccccc2s1	-25.5
COCCn1c(C)cc(C(=O)COC(=O)/C=C/c2cccc(OC)c2)c1C	-18.9
Cc1oc2c(C)c3oc(=O)c(CC(=O)N[C@@H](CC(C)C)C(=O)N[C@@H](Cc4ccccc4)C(=O)O)c(C)c3cc2c1C	14.1
CCN1C/C(=N\S(=O)(=O)/N=C2\CN(CC)C(=O)N2CC)N(CC)C1=O	5.87
O=C(Nc1nccs1)c1ccc(CSc2ccccc2)o1	-42.4

Structure (SMILES)	hERG current change (%, negative = inhibition) at 10uM [%]
O=S1(=O)CCOC[C@H](CC2CCCCC2)N1Cc1ccc(F)cc1	-8.7
O=S(=O)(c1ccc(-c2ccon2)s1)N1CCN(CCN2CCOCC2)CC1	17.4
O=C(Cn1cnc2ccccc2c1=O)c1c[nH]c2ccccc12	2.67
COc1ccc(C2c3c(oc4ccccc4c3=O)C(=O)N2c2ccccn2)cc1 (stereo not drawn)	1.76
CC(NC(=O)c1c(O)c2ccccc2n(C)c1=O)c1ccccc1 (stereo not drawn)	1.28
CC[C@H](C)[C@H]1O[C@]2(CC[C@@H]1C)C[C@@H]1C[C@@H](CC=C(C)[C@@H](O[C@H]3C[C@H](OC)[C@@H](O[C@H]4C[C@H](OC)[C@@H](O)[C@H](C)O4)[C@H](C)O3)[C@@H](C)C=CC=C3CO[C@@H]4[C@H](O)C(C)=C[C@@H](C(=O)O1)[C@]34O)O2	4.4
O=c1[nH]c(O)c(/C=C2/C=CC(c3cc(Cl)ccc3Cl)=N2)c(=O)[nH]1	0.304
O=C1NC(Cc2ccccc2)C(=O)Nc2ccc(Br)cc21 (stereo not drawn)	2.26
O=C(COC(=O)c1cccc2ccccc12)NCC1CCCO1 (stereo not drawn)	4.32
Cc1ccc(SCC(=O)Nc2cccc(C(=O)NC(C)(C)C)c2)cc1	4.17
CCC(/C=N/Nc1ccc(S(=O)(=O)N2CCCC2)cc1[N+](=O)[O-])CC	1.08
Cc1ccc(C)c(C(=O)OCC(=O)N(C)c2ccccc2)c1	-21.6
COc1ccc(N=C2SC(C(=O)Nc3ccc(C(=O)O)cc3)CC(=O)N2Cc2cccs2)cc1 (stereo not drawn)	10.7
COc1cc(C(=O)OCC(=O)NC(N)=O)cc(CN2C(=O)c3ccccc3C2=O)c1OC	9.89
CC(C)N(C(=O)CSc1nnnn1-c1ccc2c(c1)OCO2)C(C)C	8.46
CCc1nc2ccccc2c(NC(=O)CN2CC(C)CC(C)C2)c1C (stereo not drawn)	-17.7
COc1ccccc1NC(=O)C(=O)N(c1cccnc1)C(C(=O)NC(C)(C)C)c1ccccc1F (stereo not drawn)	11.7
Cn1c2ccccc2c(=O)c2ccc(C#Cc3ccccn3)cc21	8.23
COC(=O)C(CCSC)NC(=O)/C=C/c1ccc(OC)cc1 (stereo not drawn)	-1.07
Cc1ccc(-c2cc(C(F)F)nc(S(C)(=O)=O)n2)cc1	-11.6
O=C(NCc1ccccc1)C1=C[C@H](c2ccc(C(F)(F)F)cc2)C[C@H](OCc2ccc(CO)cc2)O1	8.87
